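Each compound was tested at five concentrations against cells in 96-well plates for 48 hours. The concentration for 50% growth inhibition is given as GI50.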 Not every entry of the source has a single result; some have several. The list is limited to them. The source may hold further records. For some assays here: A record mostly stands for its own series of concentrations, not given here; a value can be the end of its range.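 At the TGI there is no net growth.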 For some assays here: Values that stand side by side are repeated measurements in other runs, samples, wells, individuals or studies. Brackets tell where a record comes from. A, B and so on number the origins entry by entry.
Assays:
Experiment in all cases: NCI tumour cell line growth inhibition, 48 h
CCRF-CEM leukemia = system: CCRF-CEM leukemia
K-562 leukemia = system: K-562 leukemia
RPMI-8226 leukemia = system: RPMI-8226 leukemia
MOLT-4 leukemia = system: MOLT-4 leukemia
A498 renal = system: A498 renal
UACC-62 melanoma = system: UACC-62 melanoma
M14 melanoma = system: M14 melanoma
NCI-H23 lung = system: NCI-H23 lung
SF-268 CNS = system: SF-268 CNS
NCI-H522 lung = system: NCI-H522 lung
NCI-H460 lung = system: NCI-H460 lung
SR leukemia = system: SR leukemia
OVCAR-8 ovarian = system: OVCAR-8 ovarian
A549 NSCLC = system: A549 NSCLC
NCI-H226 lung = system: NCI-H226 lung
IGROV1 ovarian = system: IGROV1 ovarian
OVCAR-3 ovarian = system: OVCAR-3 ovarian
SN12C renal = system: SN12C renal
OVCAR-4 ovarian = system: OVCAR-4 ovarian
HT29 colon = system: HT29 colon
HCT-15 colon = system: HCT-15 colon
DMS 273 small cell lung = system: DMS 273 small cell lung
MALME-3M melanoma = system: MALME-3M melanoma
SNB-19 CNS = system: SNB-19 CNS
DLD-1 colon = system: DLD-1 colon
SK-MEL-2 melanoma = system: SK-MEL-2 melanoma
KM20L2 colon = system: KM20L2 colon
OVCAR-5 ovarian = system: OVCAR-5 ovarian
MDA-N = system: MDA-N
NCI/ADR-RES ovarian = system: NCI/ADR-RES ovarian
SK-OV-3 ovarian = system: SK-OV-3 ovarian
UO-31 renal = system: UO-31 renal
P388/ADR leukemia = system: P388/ADR leukemia
P388 leukemia = system: P388 leukemia
HL-60(TB) leukemia = system: HL-60(TB) leukemia
LXFL 529 NSCLC = system: LXFL 529 NSCLC
SNB-78 CNS = system: SNB-78 CNS
HOP-62 NSCLC = system: HOP-62 NSCLC
SN12K1 renal = system: SN12K1 renal
SW-620 colon = system: SW-620 colon
UACC-257 melanoma = system: UACC-257 melanoma
COLO 205 colon = system: COLO 205 colon
TK-10 renal = system: TK-10 renal
HCT-116 colon = system: HCT-116 colon
MDA-MB-435 = system: MDA-MB-435
CAKI-1 renal = system: CAKI-1 renal
SF-295 CNS = system: SF-295 CNS
ACHN renal = system: ACHN renal
U251 CNS = system: U251 CNS
HOP-18 NSCLC = system: HOP-18 NSCLC
SK-MEL-5 melanoma = system: SK-MEL-5 melanoma
MCF7 breast = system: MCF7 breast
LOX IMVI melanoma = system: LOX IMVI melanoma

C=CCn1c(=O)c2cnc(Nc3ccc(N4CCN(C)CC4)cc3)nc2n1-c1cccc(C(C)(C)O)n1
TGI (CCRF-CEM leukemia): 16.6 µM [sample A, mean of 2 tests] and 1.52 µM [sample B, mean of 2 tests]

COc1cccc2c1[C@H]1CO[C@H]3C4C[C@H](C(=O)O)C([C@@H](C2)N13)N4C (stereo partly specified)
TGI (K-562 leukemia): 5.03 µM and > 100 µM | TGI (CCRF-CEM leukemia): > 100 µM [1 test] and 7.87 µM [mean of 3 tests] | GI50 (RPMI-8226 leukemia): 75.5 nM [1 test] and 3.59 µM [mean of 3 tests] | TGI (RPMI-8226 leukemia): > 100 µM [1 test] and 9.2 µM [mean of 3 tests] | TGI (MOLT-4 leukemia): 8.09 µM and > 100 µM | GI50 (A498 renal): 233 nM [1 test] and 5.37 µM [mean of 4 tests] | TGI (A498 renal): 584 nM [1 test] and 9.14 µM [mean of 4 tests] | TGI (UACC-62 melanoma): 2.14 µM and 186 nM

C[C@@H]1COCCN1c1cc(-c2ccnn2C)c2ccnc(-c3ccn[nH]3)c2n1
TGI (M14 melanoma): 225 nM [sample A, mean of 2 tests] and 3.58 µM [sample B, mean of 2 tests] | TGI (NCI-H23 lung): 1.65 µM [sample A, mean of 2 tests] and > 38 µM [sample B, mean of 2 tests] | TGI (SF-268 CNS): 9.96 µM [sample A, mean of 2 tests] and > 100 µM [sample B, mean of 2 tests] | TGI (NCI-H522 lung): 4.08 µM [sample A, mean of 2 tests] and > 81.6 µM [sample B, mean of 2 tests] | TGI (NCI-H460 lung): 6.23 µM [sample A, mean of 2 tests] and > 100 µM [sample B, mean of 2 tests] | TGI (SR leukemia): 1.08 µM [sample A, 1 test] and > 100 µM [sample B, 1 test] | TGI (OVCAR-8 ovarian): 4.7 µM [sample A, mean of 2 tests] and > 47.8 µM [sample B, mean of 2 tests] | TGI (A549 NSCLC): 1.98 µM [sample A, mean of 2 tests] and > 100 µM [sample B, mean of 2 tests] | TGI (NCI-H226 lung): 3.19 µM [sample A, 1 test] and > 36 µM [sample B, mean of 2 tests] | TGI (IGROV1 ovarian): 1.92 µM [sample A, mean of 2 tests] and > 20.5 µM [sample B, mean of 2 tests] | TGI (OVCAR-3 ovarian): 6.01 µM [sample A, mean of 2 tests] and > 100 µM [sample B, mean of 2 tests]

COc1cccc2c1C(=O)c1c(O)c3c(c(O)c1C2=O)C[C@@](O)(C(=O)CO)C[C@@H]3OC1CC(N2CCOCC2C#N)C(O)C(C)O1 (stereo partly specified)
TGI (SN12C renal): 0.0002 nM, 0.25 nM, 2.5 nM, 4.19 nM, < 108 nM, 881 nM | TGI (OVCAR-4 ovarian): 0.0002 nM, 0.319 nM [mean of 5 tests] and 0.647 nM [mean of 9 tests] | TGI (HT29 colon): 0.0002 nM, 0.25 nM, 5.19 nM, 0.862 nM, 4.75 µM, 265 nM | TGI (HCT-15 colon): 0.25 nM [1 test] and 2.41 nM [mean of 2 tests] and 215 nM [mean of 3 tests] and 352 nM [mean of 8 tests] and 3.12 nM [mean of 9 tests] | TGI (K-562 leukemia): 0.25 nM, 1.31 nM, 1.14 nM, 21.9 nM, 4.58 µM | TGI (DMS 273 small cell lung): 6.2e-05 nM, 0.19 nM, 0.0964 nM | TGI (MALME-3M melanoma): 3.7e-05 nM, 0.247 nM, 0.81 nM | TGI (SNB-19 CNS): 2.56 nM, 20 nM, 573 nM, 2.88 µM | TGI (CCRF-CEM leukemia): 0.0002, 1.33, 1.8, 2.69, 252 nM | TGI (DLD-1 colon): 0.25, 4.98, 0.822, 207 nM | TGI (RPMI-8226 leukemia): 1.61 nM, 0.271 nM, 20.7 nM | TGI (SK-MEL-2 melanoma): 2.1e-05 nM, 0.382 nM, 0.259 nM | TGI (KM20L2 colon): 1.86, 1.02, 359, 413 nM | TGI (OVCAR-5 ovarian): 0.126 nM [mean of 4 tests] and 0.447 nM, 20.1 nM [mean of 8 tests] | TGI (MDA-N): 0.0268 nM and 0.491 nM | TGI (MOLT-4 leukemia): 0.0002, 0.25, 0.77, 0.136, 628 nM | TGI (NCI/ADR-RES ovarian): 6.7e-05 nM, 1.1 nM [1 test] and 2.03 nM [mean of 10 tests] and 8.5e-05 nM [mean of 5 tests] | TGI (NCI-H23 lung): 0.108 nM, 0.122 nM, 11.6 nM | TGI (SF-268 CNS): 0.0002 nM, 5e-05 nM, 2.11 nM, 1.65 nM, 8.08 nM, 46.9 nM | TGI (SK-OV-3 ovarian): 0.25 nM [1 test] and 6.26 nM, 1.83 nM [mean of 3 tests] and 15.6 nM [mean of 6 tests] and 57.6 nM [mean of 8 tests] | TGI (UO-31 renal): 7.5e-05 nM, 0.451 nM, 0.21 nM, 3.99 nM | GI50 (P388/ADR leukemia): 2.5 nM [mean of 2 tests] and 3.1e-05 nM [mean of 5 tests] and 0.00743 nM [mean of 6 tests] | TGI (P388/ADR leukemia): 250 nM [mean of 2 tests] and 0.0002 nM [mean of 5 tests] and 0.139 nM [mean of 6 tests] | TGI (P388 leukemia): 0.0002, 0.25, 0.0387, 628 nM | TGI (HL-60(TB) leukemia): 0.0002 nM, 0.352 nM [mean of 5 tests] and 0.218 nM [mean of 9 tests] | TGI (LXFL 529 NSCLC): 2.7 nM and 1.05 µM | TGI (SNB-78 CNS): 0.0469 nM, 2.55 nM, 5.74 nM, 3.61 µM, 6.13 nM | TGI (HOP-62 NSCLC): 0.000199, 0.2, 0.152, 8.76 nM | TGI (SN12K1 renal): 0.25 nM [1 test] and 0.786 nM [mean of 3 tests] and 6.25 nM [mean of 6 tests] | TGI (SW-620 colon): 0.000124 nM, 0.25 nM, 1.65 nM, 10.7 nM, 608 nM, 1.29 µM | TGI (NCI-H460 lung): 4.15 nM, 132 nM [mean of 3 tests] and 0.0002 nM, 0.471 nM [mean of 5 tests] and 7.2 nM [mean of 8 tests] | TGI (UACC-257 melanoma): 0.228 nM, 0.263 nM, 7.16 nM | TGI (COLO 205 colon): 8.6e-05 nM, 0.465 nM, 0.386 nM | TGI (TK-10 renal): 2.73 nM [mean of 2 tests] and 1.7 µM [mean of 3 tests] and 10.4 nM [mean of 4 tests] | TGI (HCT-116 colon): 0.25 nM, 5.88 nM, 7.24 nM, 42.4 nM, 5.35 µM | TGI (MDA-MB-435): 0.0223 nM and 0.492 nM | TGI (CAKI-1 renal): 0.000105 nM [1 test] and 0.0002 nM [mean of 3 tests] and 91.8 nM [mean of 4 tests] and 2.94 nM [mean of 6 tests] and 1.07 nM [mean of 7 tests] | TGI (SR leukemia): 0.0498 nM and 4.88 nM | TGI (OVCAR-8 ovarian): 1.94 nM, 10.4 nM [mean of 4 tests] and 6.8e-05 nM [mean of 5 tests] and 19.2 nM [mean of 7 tests] and 6.02 nM [mean of 9 tests] | TGI (SF-295 CNS): 1.32 nM [mean of 4 tests] and 7.3e-05 nM [mean of 5 tests] and 0.105 nM [mean of 7 tests] | TGI (ACHN renal): 0.147 nM [mean of 3 tests] and 2.88 nM [mean of 4 tests] | TGI (A549 NSCLC): 0.25 nM [1 test] and 6.32 µM [mean of 3 tests] and 2.6 nM [mean of 4 tests] and 0.000164 nM [mean of 5 tests] and 20 nM [mean of 7 tests] and 1.14 µM [mean of 9 tests] | TGI (U251 CNS): 1.02 µM [mean of 3 tests] and 0.0002 nM, 6.04 nM [mean of 4 tests] and 6.1 nM [mean of 5 tests] and 307 nM [mean of 9 tests] | TGI (NCI-H226 lung): 0.0664 nM [mean of 3 tests] and 0.0002 nM [mean of 5 tests] and 0.0833 nM [mean of 8 tests] | TGI (HOP-18 NSCLC): 1.67, 0.779, 17.8, 84.6 nM | TGI (UACC-62 melanoma): 0.0002 nM, 0.0857 nM, 0.0373 nM | TGI (IGROV1 ovarian): 9.9e-05 nM, 0.25 nM, 5.97 nM, 7.16 nM, 447 nM, 2.1 µM | TGI (SK-MEL-5 melanoma): 6.5e-05 nM, 0.204 nM, 0.127 nM | TGI (OVCAR-3 ovarian): 1.47 nM, 464 nM [mean of 3 tests] and 0.0972 nM, 99.5 nM [mean of 5 tests] | TGI (MCF7 breast): 0.25 nM, 6.43 nM, 406 nM | TGI (LOX IMVI melanoma): 0.0002, 0.00502, 0.514, 0.0724, 25.3, 28 nM

From PubChem BioAssay (NCI)
